Assay results taken from PubChem BioAssay AID624417 (National Center for Advancing Translational Sciences (NCATS), 2012).
Out of some 410,000 compounds screened, about 6,400 (1.6%) were called active. The shares of active, inactive and inconclusive entries below differ from those in the screen. Calls come from the whole dose curve; as a rule, active = well fitted inhibition curve with a large enough effect; inconclusive = small, poorly fitted or top-dose-only effect; inactive = no such curve, though single readings can be large or run the other way. Potencies of inconclusive entries are left out as doubtful fits.

molecular target: Glucagon-like peptide 1 receptor (Homo sapiens) (UniProt P43220); assay: qHTS of GLP-1 Receptor Inverse Agonists (Inhibition Mode); settings: HEK293 GLP-1R CRE-luciferase, luminescence, 24 h, GLP-1R form is constitutively active; activity change, negative = inhibition: at 38.3 µM (top of the series) unless noted; note: nearly all actives have a fitted effect of over 55% in size
Summary of the method: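 Luminescence readout: a drop in cAMP-driven luciferase signal flags inverse agonism at a constitutively active GLP-1R stably expressed in HEK293. Compound exposure lasted 24 hr at 37 deg C, 5% CO2.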
% is set by controls: 0 for no effect and ±100 for the full control effect; potency is the fitted concentration of half-maximal effect; tags give direction and shape of the fitted curve.

Sequence of UniProt P43220 (P43220 whole entry, looked up): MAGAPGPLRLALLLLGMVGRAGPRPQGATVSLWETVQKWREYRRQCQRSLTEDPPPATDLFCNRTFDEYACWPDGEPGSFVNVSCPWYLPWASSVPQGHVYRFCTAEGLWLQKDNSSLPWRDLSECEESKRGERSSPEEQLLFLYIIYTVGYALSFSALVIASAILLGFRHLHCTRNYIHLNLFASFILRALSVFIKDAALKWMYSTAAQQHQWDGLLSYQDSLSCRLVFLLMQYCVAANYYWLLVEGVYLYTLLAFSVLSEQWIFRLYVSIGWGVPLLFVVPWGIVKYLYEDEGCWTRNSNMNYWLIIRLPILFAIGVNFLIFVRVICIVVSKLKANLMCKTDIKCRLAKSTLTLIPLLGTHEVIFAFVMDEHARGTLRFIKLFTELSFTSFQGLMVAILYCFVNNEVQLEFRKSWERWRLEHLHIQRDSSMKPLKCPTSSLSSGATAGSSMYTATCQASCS

Structure (SMILES) | Potency | activity change, negative = inhibition
CCCOc1ccc(/C=C/C(=O)Nc2ccc([N+](=O)[O-])cc2)cc1 | inconclusive [inhibitor, full curve, poor fit] | 
CCCCc1c(C)nn(-c2nnc3c4ccccc4n(C)c3n2)c1C | inconclusive [inhibitor, single point] | 
Brc1ccc2nc(-c3ccncc3)c(NC3CCCC3)n2c1 | inconclusive [inhibitor, partial curve, poor fit] | 
CSc1n[nH]c2nc3c(c(=O)n12)C1(CCCC1)Cc1ccccc1-3 | inactive | 
Cc1ccc(NS(=O)(=O)c2ccc(NC(=O)c3cccs3)cc2)c(C)c1 | inconclusive [inhibitor, single point] | 
CCN(CC)CCN(Cc1cc2ccc(C)cc2[nH]c1=O)C(=S)Nc1ccccc1C(=O)OC | inconclusive [inhibitor, single point] | 
O=S(=O)(c1cccc(NC(=S)N2CCN(c3ccccc3F)CC2)c1)C(F)F | inconclusive [inhibitor, single point] | 
CCOC(=O)C1=C(Cc2ccc(Cl)cc2)C(=O)c2ccccc2C1=O | inconclusive [inhibitor, partial curve, poor fit] | 
CCc1cccc(NC(=O)COC(=O)c2c(C)nn(-c3ccccc3)c2C)c1 | inconclusive [inhibitor, partial curve] | 
Cc1ccc2c(c1)N(CC(=O)N1CCCc3ccccc31)C(=O)CO2 | inconclusive [inhibitor, single point] | 
COc1ccc([N+](=O)[O-])cc1NC(=O)C1C2C=CC(C2)C1C(=O)O (centres undefined) | inactive | 
CCCn1c2ccccc2c2cnn(CC(=O)N(CCCOC(C)C)Cc3ccco3)c(=O)c21 | inconclusive [inhibitor, single point] | 
COc1ccc(NS(=O)(=O)c2cccc(C(=O)N(C)Cc3ccc(SC)cc3)c2)cc1 | inconclusive [inhibitor, single point] | 
COc1cccc(CN2CCN(C3CCN(c4cccc(C)c4C)CC3)CC2CCO)c1 (centres undefined) | inconclusive [inhibitor, partial curve, poor fit] | 
CC1(Cc2cc(Cl)ccc2C(F)(F)F)C(=O)Nc2c(Cl)cccc21 (centres undefined) | inconclusive [inhibitor, single point] | 
Cc1ccc(NC(=O)N2CCC(NC(=O)c3ccccc3C)CC2)cc1 | inconclusive [inhibitor, full curve, poor fit] | 
O=C(OCc1cn([C@H]2C[C@H](c3ccc(Cl)cc3)N(C(=O)C3CCCCC3)C[C@@H]2O)nn1)c1ccccc1 | inconclusive [inhibitor, partial curve, poor fit] | 
COc1cccc2sc(N(CCCN(C)C)C(=O)c3ccc(S(=O)(=O)N4CCCc5ccccc54)cc3)nc12 | inconclusive [inhibitor, partial curve, poor fit] | 
O=C(NCCc1c[nH]c2ccccc12)Nc1ccccc1C(F)(F)F | inconclusive [inhibitor, single point] | 

Structure (SMILES) | Potency | activity change, negative = inhibition
CC(OC(=O)c1ccc(NC(=O)CC#N)cc1)C(=O)NC(=O)NC1CCCCC1 (centres undefined) | inconclusive [inhibitor, single point] | 
Cc1ccccc1N1CCN(CC(=O)NCc2ccc(Cl)cc2)CC1 | inconclusive [inhibitor, partial curve, poor fit] | 
COc1ccc(Cc2nnc(NC(=O)c3c(-c4ccccc4)noc3C)s2)cc1 | inconclusive [inhibitor, single point] | 
Cc1ccc(NC(=O)Cn2cc(C(F)(F)F)cc(Cl)c2=O)cc1S(=O)(=O)N1CCCCC1 | inconclusive [inhibitor, single point] | 
COc1ccc(OC)c(/C=C/C(=O)N2CCN(S(=O)(=O)c3ccc(C)cc3C)CC2)c1 | inconclusive [inhibitor, single point] | 
COc1cccc(NC(=O)c2cnn(-c3ccccc3)c2C)c1 | inconclusive [inhibitor, partial curve] | 
CCOc1ccc(C2c3[nH]c4ccccc4c3C[C@H]3C(=O)N(C4CCN(Cc5ccccc5)CC4)CC(=O)N23)cc1OC (some centres undefined) | inconclusive [inhibitor, partial curve, poor fit] | 
COC(=O)C(CC(C)C)Oc1ccc2c(C)cc(=O)oc2c1 (centres undefined) | inactive | 
O=C(OCC(=O)N(CCc1ccccc1)Cc1ccccc1)c1cc(S(=O)(=O)N2CCOCC2)ccc1F | inconclusive [inhibitor, partial curve, poor fit] | 
c1ccc2c(CCc3ccncc3)cccc2c1 | inconclusive [inhibitor, partial curve, poor fit] | 
CC(C)Oc1ccc(CCC(=O)N/N=C/c2ccc3c(c2)OCO3)cc1 | inactive | 
COc1ccc(C(C)=O)cc1Cn1c(C)c(C(=O)NCc2ccc(C(C)C)cc2)sc1=O | inconclusive [inhibitor, single point] | 
COc1ccc(NC(=O)CN(C)C(=O)c2cc3c(s2)CCCCC3)cc1 | inconclusive [inhibitor, partial curve, poor fit] | 
Cc1cc(Cl)c(S(=O)(=O)N2CCCC2)cc1OCC(=O)NC1CCCCC1 | inconclusive [inhibitor, single point] | 
CCCCC/C=C/C1=CC(=O)C[C@H](c2ccc3c(c2)OCO3)C1 | inconclusive [inhibitor, single point] | 
O=C1CN(C(=O)c2ccccc2)C(c2ccc(F)cc2)c2cc(Br)ccc2N1 (centres undefined) | inconclusive [inhibitor, single point] | inconclusive: -79% [inhibitor]
O=S(=O)(c1ccc(F)cc1)c1nc(-c2ccccc2F)oc1N1CCCCC1 | inconclusive [inhibitor, single point] | 
Cc1ccc(-c2cnco2)cc1 | inactive | 
CC12COC3(C(=O)Nc4ccccc4)CC1CCC32C (centres undefined) | inconclusive [inhibitor, partial curve, poor fit] | 
